Experimental data published in the supplement of paper PMC4967469.
IC50 is the fitted dose that halves viability relative to control wells, and lower means more sensitive; where the fit passes the top or lowest dose, that dose stands as a limit. AUC is the area under the same curve over the 256-fold range up to the top dose, as a fraction; it is 1 without any effect and falls as sensitivity rises. For some of these results: Where the top dose is marked as inferred, it was calculated from the reported fits.

What was measured:
Assay in all cases: Viability of human cancer cell lines after 72 h of drug (GDSC screen)
Bosutinib = compound: COc1cc(Nc2c(C#N)cnc3cc(OCCCN4CCN(C)CC4)c(OC)cc23)c(Cl)cc1Cl [Bosutinib]; settings: top dose 2 µM
Procedure: (§1)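 Human cancer cell lines in 384-well plates, medium with 10% serum, drug for 72 h over a 256-fold dose range (nine 2-fold or five 4-fold steps up to the top dose). Adherent lines were fixed and stained with the nucleic acid dye Syto60, suspension lines read with resazurin; signal relative to control wells, capped at 0 and 100%. One two-parameter sigmoid per drug and line, fitted in a mixed model over all curves with the slope shared within a line.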

Midostaurin = compound: CO[C@@H]1[C@H](N(C)C(=O)c2ccccc2)C[C@H]2O[C@]1(C)n1c3ccccc3c3c4c(c5c6ccccc6n2c5c31)C(=O)NC4 [Midostaurin]; settings: top dose 0.512 µM; top dose inferred
Procedure: as §1

Mitomycin C = compound: CO[C@@]12[C@H](COC(N)=O)C3=C(C(=O)C(C)=C(N)C3=O)N1C[C@@H]1N[C@@H]12 [Mitomycin C]; settings: top dose 16 µM
Procedure: as §1

IOX2 = compound: O=C(O)CNC(=O)c1c(O)c2ccccc2n(Cc2ccccc2)c1=O [IOX2]; settings: top dose 0.1 µM; top dose inferred
Procedure: as §1

NVP-BHG712 = compound: Cc1ccc(C(=O)Nc2cccc(C(F)(F)F)c2)cc1Nc1nc(-c2cccnc2)nc2c1cnn2C [NVP-BHG712]; settings: top dose 10.24 µM; top dose inferred
Procedure: as §1

Row | Cell Line | AUC (Bosutinib) | IC50 (Bosutinib) [nM] | AUC (Midostaurin) | IC50 (Midostaurin) [nM] | AUC (Mitomycin C) | IC50 (Mitomycin C) [nM] | AUC (IOX2) | IC50 (IOX2) [nM] | AUC (NVP-BHG712) | IC50 (NVP-BHG712) [nM]
1 | KYSE-140 (oesophagus, adherent) | 0.748 | 719 | 0.906 | > 512 | 0.399 | 508 | 0.967 | > 100 | 0.817 | 6740
2 | KYSE-150 (oesophagus, adherent) | 0.961 | > 2000 | 0.813 | 262 | 0.145 | 83.8 | 0.987 | > 100 | 0.985 | > 10200
3 | KYSE-220 (oesophagus, adherent) | 0.808 | 1110 | 0.883 | > 512 | 0.451 | 729 | 0.973 | > 100 | 0.9 | > 10200
4 | KYSE-410 (oesophagus, adherent) | 0.658 | 355 | 0.817 | 310 | 0.416 | 579 | 0.971 | > 100 | 0.926 | > 10200
5 | KYSE-510 (oesophagus, adherent) | 0.985 | > 2000 | 0.819 | 231 | 0.019 | < 62.5 | 0.992 | > 100 | 0.988 | > 10200
6 | KYSE-520 (oesophagus, adherent) | 0.868 | > 2000 | 0.837 | > 512 | 0.445 | 675 | 0.979 | > 100 | 0.97 | > 10200
7 | LB831-BLC (bladder, adherent) | 0.978 | > 2000 | 0.777 | 209 | 0.5 | 998 | 0.85 | 78 | 0.978 | > 10200
8 | LC-1-sq (lung squamous cell carcinoma, adherent) | 0.825 | 1490 | 0.972 | > 512 | 0.446 | 693 | 0.96 | > 100 | 0.972 | > 10200
9 | LCLC-97TM1 (large cell lung carcinoma, adherent) | 0.949 | > 2000 | 0.834 | 380 | 0.241 | 164 | 0.977 | > 100 | 0.871 | > 10200
10 | LCLC-103H (large cell lung carcinoma, adherent) | 0.985 | > 2000 | 0.795 | 213 | 0.355 | 414 | 0.954 | > 100 | 0.971 | > 10200
11 | LK-2 (lung squamous cell carcinoma, adherent) | 0.979 | > 2000 | 0.814 | 260 | 0.382 | 485 | 0.986 | > 100 | 0.968 | > 10200
12 | LN-18 (glioma, adherent) | 0.977 | > 2000 | 0.83 | 240 | 0.25 | 229 | 0.976 | > 100 | 0.993 | > 10200
13 | LN-405 (glioma, adherent) | 0.982 | > 2000 | 0.983 | > 512 | 0.613 | 2220 | 0.981 | > 100 | 0.98 | > 10200
14 | LNZTA3WT4 (glioma, adherent) | 0.943 | > 2000 | 0.935 | > 512 | 0.551 | 1370 | 0.987 | > 100 | 0.973 | > 10200
15 | LP-1 (myeloma, suspension) | 0.993 | > 2000 | 0.986 | > 512 | 0.728 | 3890 | 0.993 | > 100 | 0.916 | > 10200
16 | LS-180 (large intestine, adherent) | 0.977 | > 2000 | 0.882 | > 512 | 0.144 | 62.7 | 0.983 | > 100 | 0.952 | > 10200
17 | LU-135 (small cell lung carcinoma, suspension) | 0.991 | > 2000 | 0.753 | 146 | 0.063 | < 62.5 | 0.992 | > 100 | 0.905 | 9640
18 | M059J (glioma, adherent) | 0.985 | > 2000 | 0.828 | 351 | 0.24 | 165 | 0.975 | > 100 | 0.936 | > 10200
19 | MC-IXC (neuroblastoma, adherent) | 0.991 | > 2000 | 0.758 | 137 | 0.022 | < 62.5 | 0.996 | > 100 | 0.931 | 8950
20 | MDA-MB-175-VII (breast, adherent) | 0.954 | > 2000 | 0.959 | > 512 | 0.69 | 3610 | 0.986 | > 100 | 0.913 | > 10200
21 | MDA-MB-330 (breast, adherent) | 0.978 | > 2000 | 0.975 | > 512 | 0.513 | 1090 | 0.984 | > 100 | 0.982 | > 10200
22 | MDA-MB-361 (breast, adherent) | 0.93 | > 2000 | 0.987 | > 512 | 0.462 | 790 | 0.987 | > 100 | 0.94 | > 10200
23 | MDA-MB-415 (breast, adherent) | 0.983 | > 2000 | 0.982 | > 512 | 0.45 | 696 | 0.832 | 96.6 | 0.979 | > 10200
24 | MDA-MB-436 (breast, adherent) | 0.947 | > 2000 | 0.981 | > 512 | 0.592 | 1910 | 0.981 | > 100 | 0.956 | > 10200
25 | MDA-MB-453 (breast, adherent) | 0.972 | > 2000 | 0.984 | > 512 | 0.491 | 940 | 0.984 | > 100 | 0.986 | > 10200

Row | Cell Line | AUC (Bosutinib) | IC50 (Bosutinib) [nM] | AUC (Midostaurin) | IC50 (Midostaurin) [nM] | AUC (Mitomycin C) | IC50 (Mitomycin C) [nM] | AUC (IOX2) | IC50 (IOX2) [nM] | AUC (NVP-BHG712) | IC50 (NVP-BHG712) [nM]
26 | ME-180 (cervix, adherent) | 0.825 | 1270 | 0.971 | > 512 | 0.132 | 63.6 | 0.981 | > 100 | 0.895 | > 10200
27 | MEL-JUSO (melanoma, adherent) | 0.805 | 1160 | 0.822 | 345 | 0.142 | 63.8 | 0.982 | > 100 | 0.683 | 2230
28 | MES-SA (uterus, adherent) | 0.928 | > 2000 | 0.68 | 93.1 | 0.196 | 150 | 0.985 | > 100 | 0.992 | > 10200
29 | MFE-280 (endometrium, adherent) | 0.982 | > 2000 | 0.956 | > 512 | 0.748 | 6360 | 0.98 | > 100 | 0.845 | > 10200
30 | MFE-296 (endometrium, adherent) | 0.965 | > 2000 | 0.927 | > 512 | 0.335 | 334 | 0.98 | > 100 | 0.98 | > 10200
31 | MHH-ES-1 (Ewing sarcoma, adherent) | 0.834 | 1280 | 0.796 | 237 | 0.087 | < 62.5 | 0.984 | > 100 | 0.928 | > 10200
32 | MKN28 (stomach, adherent) | 0.883 | > 2000 | 0.915 | > 512 | 0.264 | 208 | 0.969 | > 100 | 0.96 | > 10200
33 | MKN45 (stomach, adherent) | 0.915 | > 2000 | 0.742 | 193 | 0.251 | 157 | 0.974 | > 100 | 0.958 | > 10200
34 | MOG-G-CCM (glioma, adherent) | 0.849 | 1900 | 0.779 | 245 | 0.574 | 1650 | 0.981 | > 100 | 0.818 | 7030
35 | MOG-G-UVW (glioma, adherent) | 0.8 | 933 | 0.883 | > 512 | 0.342 | 368 | 0.975 | > 100 | 0.981 | > 10200
36 | MS751 (cervix, adherent) | 0.959 | > 2000 | 0.915 | > 512 | 0.246 | 199 | 0.986 | > 100 | 0.972 | > 10200
37 | Mewo (melanoma, adherent) | 0.887 | > 2000 | 0.974 | > 512 | 0.8 | – | 0.982 | > 100 | 0.984 | > 10200
38 | NCI-H28 (mesothelioma, adherent) | 0.927 | > 2000 | 0.796 | 332 | 0.619 | 2370 | 0.965 | > 100 | 0.932 | > 10200
39 | NCI-H292 (lung adenocarcinoma, adherent) | 0.691 | 485 | 0.898 | > 512 | 0.485 | 904 | 0.776 | 48.9 | 0.638 | 1670
40 | NCI-H441 (lung adenocarcinoma, adherent) | 0.981 | > 2000 | 0.948 | > 512 | 0.146 | < 62.5 | 0.975 | > 100 | 0.979 | > 10200
41 | NCI-H650 (lung adenocarcinoma, adherent) | 0.986 | > 2000 | 0.903 | > 512 | 0.66 | 2930 | 0.896 | > 100 | 0.916 | > 10200
42 | NCI-H727 (lung carcinoid, adherent) | 0.957 | > 2000 | 0.893 | > 512 | 0.283 | 160 | 0.971 | > 100 | 0.852 | > 10200
43 | NCI-H810 (large cell lung carcinoma, adherent) | 0.981 | > 2000 | 0.822 | 283 | 0.265 | 221 | 0.987 | > 100 | 0.926 | > 10200
44 | NCI-H838 (lung adenocarcinoma, adherent) | 0.943 | > 2000 | 0.92 | > 512 | 0.558 | 1450 | 0.985 | > 100 | 0.973 | > 10200
45 | NCI-H841 (small cell lung carcinoma, adherent) | 0.913 | > 2000 | 0.94 | > 512 | 0.651 | 2630 | 0.962 | > 100 | 0.958 | > 10200
46 | NCI-H1048 (small cell lung carcinoma, adherent) | 0.926 | > 2000 | 0.92 | > 512 | 0.204 | 150 | 0.989 | > 100 | 0.872 | 8080
47 | NCI-H1435 (lung adenocarcinoma, semi-adherent) | 0.985 | > 2000 | 0.991 | > 512 | 0.307 | 307 | 0.992 | > 100 | 0.989 | > 10200
48 | NCI-H1437 (lung adenocarcinoma, adherent) | 0.956 | > 2000 | 0.949 | > 512 | 0.197 | 120 | 0.971 | > 100 | 0.967 | > 10200
49 | NCI-H1563 (lung adenocarcinoma, adherent) | 0.964 | > 2000 | 0.823 | 378 | 0.581 | 1740 | 0.983 | > 100 | 0.906 | > 10200
50 | NCI-H1568 (lung adenocarcinoma, adherent) | 0.907 | > 2000 | 0.883 | > 512 | 0.459 | 750 | 0.971 | > 100 | 0.948 | > 10200
